# Test results as given in the supplement of paper PMC4967469.
# Lines with a small IC50 respond at low doses; where the fit passes the top or lowest dose, that dose stands as a limit. AUC sums up the same curve from the lowest dose to the 256-fold higher top dose; values near 1 show little effect. Where the top dose is marked as inferred, it is not printed in the source and was worked back from the curve model.
# Tests used:
# Assay in all cases: Viability of human cancer cell lines after 72 h of drug (GDSC screen)
# SGC0946 = compound: CC(C)N(CCCNC(=O)Nc1ccc(C(C)(C)C)cc1)C[C@H]1O[C@@H](n2cc(Br)c3c(N)ncnc32)[C@H](O)[C@@H]1O [SGC0946]; conditions: top dose 0.5 µM; top dose inferred
# Method: (§1)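 Human cancer cell lines in 384-well plates, medium with 10% serum, drug for 72 h over a 256-fold dose range (nine 2-fold or five 4-fold steps up to the top dose). Adherent lines were fixed and stained with the nucleic acid dye Syto60, suspension lines read with resazurin; signal relative to control wells, capped at 0 and 100%. One two-parameter sigmoid per drug and line, fitted in a mixed model over all curves with the slope shared within a line.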
# Bryostatin 1 = compound: CCC/C=C/C=C/C(=O)O[C@H]1/C(=C/C(=O)OC)C[C@H]2C[C@H]([C@@H](C)O)OC(=O)C[C@H](O)C[C@@H]3C[C@H](OC(C)=O)C(C)(C)[C@](O)(C[C@@H]4C/C(=C/C(=O)OC)C[C@H](/C=C/C(C)(C)[C@]1(O)O2)O4)O3 [Bryostatin 1]; conditions: top dose 0.008 µM; top dose inferred
# Method: as §1
# GW-2580 = compound: COc1ccc(COc2ccc(Cc3cnc(N)nc3N)cc2OC)cc1 [GW-2580]; conditions: top dose 20 µM; top dose inferred
# Method: as §1
# Lenalidomide = compound: Nc1cccc2c1CN(C1CCC(=O)NC1=O)C2=O [Lenalidomide]; conditions: top dose 5 µM; top dose inferred
# Method: as §1
Cell Line,AUC (SGC0946),IC50 (SGC0946),AUC (Bryostatin 1),IC50 (Bryostatin 1),AUC (GW-2580),IC50 (GW-2580),AUC (Lenalidomide),IC50 (Lenalidomide)
"22RV1 (prostate, adherent)",0.98,> 0.5 µM,0.975,> 0.008 µM,0.982,> 20 µM,0.978,> 5 µM
"42-MG-BA (glioma, adherent)",0.982,> 0.5 µM,0.985,> 0.008 µM,0.985,> 20 µM,0.971,> 5 µM
"201T (lung adenocarcinoma, adherent)",–,–,0.841,0.00773 µM,0.98,> 20 µM,0.981,> 5 µM
"451Lu (melanoma, adherent)",0.986,> 0.5 µM,0.989,> 0.008 µM,0.989,> 20 µM,0.985,> 5 µM
"639-V (bladder, adherent)",0.991,> 0.5 µM,0.959,> 0.008 µM,0.987,> 20 µM,0.96,> 5 µM
"647-V (bladder, adherent)",0.983,> 0.5 µM,0.986,> 0.008 µM,0.979,> 20 µM,0.987,> 5 µM
"5637 (bladder, adherent)",0.989,> 0.5 µM,0.977,> 0.008 µM,0.972,> 20 µM,0.989,> 5 µM
"8305C (thyroid, adherent)",0.979,> 0.5 µM,0.975,> 0.008 µM,0.978,> 20 µM,0.981,> 5 µM
"8505C (thyroid, adherent)",0.974,> 0.5 µM,0.932,> 0.008 µM,0.984,> 20 µM,0.984,> 5 µM
"23132-87 (stomach, adherent)",0.975,> 0.5 µM,0.928,> 0.008 µM,0.984,> 20 µM,0.986,> 5 µM
"A101D (melanoma, adherent)",0.967,> 0.5 µM,0.922,> 0.008 µM,0.981,> 20 µM,0.942,> 5 µM
"A375 (melanoma, adherent)",0.991,> 0.5 µM,0.988,> 0.008 µM,0.991,> 20 µM,0.964,> 5 µM
"A427 (non-small cell lung carcinoma, adherent)",0.985,> 0.5 µM,0.985,> 0.008 µM,0.98,> 20 µM,0.979,> 5 µM
"A431 (skin, adherent)",0.987,> 0.5 µM,0.969,> 0.008 µM,0.974,> 20 µM,0.984,> 5 µM
"A498 (kidney, adherent)",0.963,> 0.5 µM,0.907,> 0.008 µM,0.968,> 20 µM,0.933,> 5 µM
"A704 (kidney, adherent)",0.988,> 0.5 µM,0.976,> 0.008 µM,0.972,> 20 µM,0.989,> 5 µM
"A2058 (melanoma, adherent)",–,–,0.966,> 0.008 µM,0.989,> 20 µM,0.953,> 5 µM
"A2780 (ovary, semi-adherent)",0.98,> 0.5 µM,0.973,> 0.008 µM,0.976,> 20 µM,0.953,> 5 µM
"ABC-1 (lung adenocarcinoma, adherent)",0.98,> 0.5 µM,0.858,> 0.008 µM,0.944,> 20 µM,0.915,> 5 µM
"ACHN (kidney, adherent)",0.981,> 0.5 µM,0.979,> 0.008 µM,0.973,> 20 µM,0.978,> 5 µM
"AGS (stomach, adherent)",–,–,0.982,> 0.008 µM,0.981,> 20 µM,0.989,> 5 µM
"ASH-3 (thyroid, adherent)",0.987,> 0.5 µM,0.988,> 0.008 µM,0.988,> 20 µM,0.972,> 5 µM
"ATN-1 (T-cell lymphoblastic leukaemia, suspension)",0.985,> 0.5 µM,0.973,> 0.008 µM,0.985,> 20 µM,0.927,> 5 µM

Cell Line,AUC (SGC0946),IC50 (SGC0946),AUC (Bryostatin 1),IC50 (Bryostatin 1),AUC (GW-2580),IC50 (GW-2580),AUC (Lenalidomide),IC50 (Lenalidomide)
"AU565 (breast, adherent)",–,–,0.972,> 0.008 µM,0.976,> 20 µM,0.984,> 5 µM
"AsPC-1 (pancreas, adherent)",0.971,> 0.5 µM,0.933,> 0.008 µM,0.972,> 20 µM,0.972,> 5 µM
"BB30-HNC (head and neck, adherent)",0.984,> 0.5 µM,0.955,> 0.008 µM,0.984,> 20 µM,0.922,> 5 µM
"BB49-HNC (head and neck, adherent)",0.969,> 0.5 µM,0.931,> 0.008 µM,0.967,> 20 µM,0.978,> 5 µM
"BB65-RCC (kidney, adherent)",0.98,> 0.5 µM,0.942,> 0.008 µM,0.982,> 20 µM,0.966,> 5 µM
"BFTC-905 (bladder, adherent)",0.976,> 0.5 µM,0.99,> 0.008 µM,0.986,> 20 µM,0.986,> 5 µM
"BHT-101 (thyroid, adherent)",0.972,> 0.5 µM,0.98,> 0.008 µM,0.983,> 20 µM,0.964,> 5 µM
"BICR10 (head and neck, adherent)",0.983,> 0.5 µM,0.961,> 0.008 µM,0.984,> 20 µM,0.979,> 5 µM
"BICR22 (head and neck, adherent)",0.981,> 0.5 µM,0.948,> 0.008 µM,0.983,> 20 µM,0.942,> 5 µM
"BT-474 (breast, adherent)",0.984,> 0.5 µM,0.985,> 0.008 µM,–,–,0.976,> 5 µM
"C-4-I (cervix, adherent)",–,–,0.983,> 0.008 µM,0.983,> 20 µM,0.986,> 5 µM
"CAPAN-1 (pancreas, adherent)",–,–,0.984,> 0.008 µM,0.986,> 20 µM,0.986,> 5 µM
"DAN-G (pancreas, adherent)",–,–,0.979,> 0.008 µM,0.989,> 20 µM,0.988,> 5 µM
"DMS-273 (small cell lung carcinoma, adherent)",–,–,0.944,> 0.008 µM,0.951,> 20 µM,0.985,> 5 µM
"DOHH-2 (B-cell lymphoma, suspension)",–,–,0.944,> 0.008 µM,–,–,0.98,> 5 µM
"EHEB (lymphoid neoplasm, suspension)",0.966,> 0.5 µM,0.978,> 0.008 µM,–,–,0.977,> 5 µM
"FADU (head and neck, adherent)",–,–,0.952,> 0.008 µM,0.987,> 20 µM,0.988,> 5 µM
"GMS-10 (glioma, adherent)",–,–,0.987,> 0.008 µM,0.987,> 20 µM,0.988,> 5 µM
"HCC202 (breast, adherent)",0.933,> 0.5 µM,0.942,> 0.008 µM,–,–,0.981,> 5 µM
"HCC2998 (large intestine, adherent)",–,–,0.988,> 0.008 µM,0.988,> 20 µM,0.963,> 5 µM
"HT55 (large intestine, adherent)",–,–,0.842,0.00556 µM,0.99,> 20 µM,0.99,> 5 µM
"HuP-T4 (pancreas, adherent)",–,–,0.969,> 0.008 µM,0.981,> 20 µM,0.982,> 5 µM
"IGR-1 (melanoma, adherent)",–,–,0.942,> 0.008 µM,0.99,> 20 µM,0.99,> 5 µM

Cell Line,AUC (SGC0946),IC50 (SGC0946),AUC (Bryostatin 1),IC50 (Bryostatin 1),AUC (GW-2580),IC50 (GW-2580),AUC (Lenalidomide),IC50 (Lenalidomide)
"IM-9 (myeloma, suspension)",0.988,> 0.5 µM,0.99,> 0.008 µM,–,–,0.992,> 5 µM
"JHU-011 (head and neck, adherent)",–,–,0.983,> 0.008 µM,0.986,> 20 µM,0.966,> 5 µM
"JHU-029 (head and neck, adherent)",0.977,> 0.5 µM,0.928,> 0.008 µM,–,–,0.969,> 5 µM
"KMRC-1 (kidney, adherent)",–,–,0.983,> 0.008 µM,0.978,> 20 µM,0.983,> 5 µM
"KP-1N (pancreas, adherent)",0.97,> 0.5 µM,0.971,> 0.008 µM,–,–,0.961,> 5 µM
"KYSE-410 (oesophagus, adherent)",–,–,0.972,> 0.008 µM,0.985,> 20 µM,0.958,> 5 µM
"MG-63 (osteosarcoma, adherent)",–,–,0.978,> 0.008 µM,0.976,> 20 µM,0.983,> 5 µM
"MHH-NB-11 (neuroblastoma, adherent)",–,–,0.985,> 0.008 µM,0.985,> 20 µM,0.955,> 5 µM
"MKN28 (stomach, adherent)",–,–,0.987,> 0.008 µM,0.987,> 20 µM,0.981,> 5 µM
"MSTO-211H (mesothelioma, adherent)",–,–,0.99,> 0.008 µM,0.988,> 20 µM,0.924,> 5 µM
"NB69 (neuroblastoma, adherent)",–,–,0.988,> 0.008 µM,0.989,> 20 µM,0.972,> 5 µM
"NCI-H64 (small cell lung carcinoma, suspension)",–,–,0.996,> 0.008 µM,0.993,> 20 µM,0.995,> 5 µM
"NCI-H1734 (lung adenocarcinoma, adherent)",–,–,0.976,> 0.008 µM,0.985,> 20 µM,0.984,> 5 µM
"NCI-H2052 (mesothelioma, adherent)",–,–,0.98,> 0.008 µM,0.982,> 20 µM,0.982,> 5 µM
"NH-12 (neuroblastoma, adherent)",–,–,0.983,> 0.008 µM,0.98,> 20 µM,0.984,> 5 µM
"PA-1 (ovary, adherent)",–,–,0.993,> 0.008 µM,0.987,> 20 µM,0.991,> 5 µM
"PANC-04-03 (pancreas, adherent)",–,–,0.952,> 0.008 µM,0.963,> 20 µM,0.96,> 5 µM
"PFSK-1 (medulloblastoma, adherent)",–,–,0.986,> 0.008 µM,0.985,> 20 µM,0.976,> 5 µM
"RPMI-7951 (melanoma, adherent)",–,–,0.908,> 0.008 µM,0.984,> 20 µM,0.987,> 5 µM
"SCC90 (head and neck, adherent)",0.974,> 0.5 µM,0.953,> 0.008 µM,–,–,0.98,> 5 µM
"STS-0421 (soft tissue, adherent)",0.98,> 0.5 µM,0.942,> 0.008 µM,–,–,0.983,> 5 µM
"VMRC-RCW (kidney, adherent)",–,–,0.979,> 0.008 µM,0.981,> 20 µM,0.981,> 5 µM
